Results from article PMC3002306.
Results are given in words; binding and its absence hold for the method and conditions named. For part of these data: Binding seen in cells or lysates may run through a third protein. Some results given as binding are weak or reduced against the parent protein; the word gives no strength.

The chains behind the UniProt entries cited, without tags or fusion partners. Where a name states a change or a piece, a line headed by the entry shows the natural chain unless it says otherwise. A line that says so, or that is headed by a name, gives the form on record, which may keep a tag or linker. Residues count along the entry.
GST fused to the cap domain of hu-TOP1 (E236/N237) (P11387, residues 219-433): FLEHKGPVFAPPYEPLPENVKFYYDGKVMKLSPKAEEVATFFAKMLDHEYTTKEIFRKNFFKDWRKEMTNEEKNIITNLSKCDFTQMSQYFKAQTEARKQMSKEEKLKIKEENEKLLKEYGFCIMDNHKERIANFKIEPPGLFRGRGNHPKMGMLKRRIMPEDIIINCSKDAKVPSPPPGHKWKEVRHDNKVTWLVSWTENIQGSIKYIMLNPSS
GST fused to the cap domain of hu-TOP1 with AGM residues D236/S237 (P11387, form named): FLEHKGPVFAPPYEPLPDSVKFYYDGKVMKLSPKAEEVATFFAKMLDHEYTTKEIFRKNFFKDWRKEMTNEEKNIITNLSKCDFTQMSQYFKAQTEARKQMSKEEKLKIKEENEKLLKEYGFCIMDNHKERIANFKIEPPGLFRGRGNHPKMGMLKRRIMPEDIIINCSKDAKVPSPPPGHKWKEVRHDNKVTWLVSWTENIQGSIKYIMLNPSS

T1: BTBD2 (two-hybrid construct of the unpublished BTBD1-BTBD2 assay) (UniProt Q9BX70)
T1 sequence: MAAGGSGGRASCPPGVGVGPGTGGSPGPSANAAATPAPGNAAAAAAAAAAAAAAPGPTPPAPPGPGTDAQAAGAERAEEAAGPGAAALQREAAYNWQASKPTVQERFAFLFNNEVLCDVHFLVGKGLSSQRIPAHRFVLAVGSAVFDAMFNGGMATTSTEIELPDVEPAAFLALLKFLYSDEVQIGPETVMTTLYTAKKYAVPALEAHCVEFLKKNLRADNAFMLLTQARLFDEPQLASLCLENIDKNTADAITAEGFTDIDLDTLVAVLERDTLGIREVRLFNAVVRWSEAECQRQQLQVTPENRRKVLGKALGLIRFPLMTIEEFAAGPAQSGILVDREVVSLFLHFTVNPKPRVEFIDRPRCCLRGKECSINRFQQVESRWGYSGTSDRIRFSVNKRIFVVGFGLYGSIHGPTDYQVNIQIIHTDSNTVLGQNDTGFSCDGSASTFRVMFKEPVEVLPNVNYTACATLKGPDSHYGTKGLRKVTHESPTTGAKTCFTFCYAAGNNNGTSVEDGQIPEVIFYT

B1: endogenous BTBD1 (protein, UniProt Q9H0C5-1 1-482)
chain: MASLGPAAAGEQASGAEAEPGPAGPPPPPSPSSLGPLLPLQREPLYNWQATKASLKERFAFLFNSELLSDVRFVLGKGRGAAAAGGPQRIPAHRFVLAAGSAVFDAMFNGGMATTSAEIELPDVEPAAFLALLRFLYSDEVQIGPETVMTTLYTAKKYAVPALEAHCVEFLTKHLRADNAFMLLTQARLFDEPQLASLCLDTIDKSTMDAISAEGFTDIDIDTLCAVLERDTLSIRESRLFGAVVRWAEAECQRQQLPVTFGNKQKVLGKALSLIRFPLMTIEEFAAGPAQSGILSDREVVNLFLHFTVNPKPRVEYIDRPRCCLRGKECCINRFQQVESRWGYSGTSDRIRFTVNRRISIVGFGLYGSIHGPTDYQVNIQIIEYEKKQTLGQNDTGFSCDGTANTFRVMFKEPIEILPNVCYTACATLKGPDSHYGTKGLKKVVHETPAASKTVFFFFSSPGNNNGTSIEDGQIPEIIFYT
B2: BTBD1 (two-hybrid construct of the unpublished BTBD1-BTBD2 assay) (protein, UniProt Q9H0C5-1 1-482)
chain: B1 chain
B3: endogenous BTBD2 (protein, UniProt Q9BX70-1 1-525)
chain: T1 sequence

Key:
[1] = target: GST fused to the cap domain of hu-TOP1 (E236/N237) (human) (UniProt P11387); experiment: pull-down; GST-capTOP1 on glutathione beads incubated with cell extracts containing C-terminal regions of BTBD1 and BTBD2; Western blot with a polyclonal antibody recognising both; only the target purified
[2] = target: GST fused to the cap domain of hu-TOP1 with AGM residues D236/S237 (human) (UniProt P11387); experiment: as above
[3] = target: GST fused to the cap domain of hu-TOP1 (E236/N237) (human) (UniProt P11387); experiment: pull-down; GST-capTOP1 on glutathione beads incubated with extracts of 293T cells or HeLa cells; endogenous BTBD1 and BTBD2 detected with specific peptide antibodies; only the target purified
[4] = target: GST fused to the cap domain of hu-TOP1 with AGM residues D236/S237 (human) (UniProt P11387); experiment: as above
[5] = target: T1, BTBD2 (two-hybrid construct of the unpublished BTBD1-BTBD2 assay); experiment: two-hybrid; unpublished results; BTBD1 with BTBD2

| Molecule | binding [1] | binding [2] | binding [3] | binding [4] | binding [5] |
| --- | --- | --- | --- | --- | --- |
| C-terminal region of BTBD1 (aa 186-482) (from UniProt Q9H0C5-1 186-482) (domain or fragment) | binds | no binding |  |  |  |
| C-terminal region of BTBD2 (aa 219-525) (from UniProt Q9BX70-1 219-525) (domain or fragment) | binds | no binding |  |  |  |
| B1 |  |  | binds | no binding |  |
| B2 |  |  |  |  | binds |
| B3 |  |  | binds | no binding |  |
